# Measurements taken from the supplement of paper PMC8728848.
# The list shows a part of the results.
# B1: SialidaseA (Arthrobacter ureafaciens) (protein)
# chain: MRSNSTSAPSLVRRAATGVLTCAVSIGLLAGLGLPAQAAPTPPNSPTLPPGSFSETNLAADRTAANFFYRIPALTYLGNDVVLAAWDGRPGSAADAPNPNSIVQRRSTDGGKTWGPVQVIAAGHVADASGPRYGYSDPSYIYDAEANKVFAFFVYSKDQGFGGSQFGNDDADRNVISSAVIESSDAGVTWSQPRLITSVTKPGTSKTNPAAGDVRSNFASSGEGIQLKYGPHKGRLIQQYAGDVRQADGSNKIQAYSVYSDDHGVTWHKGANVGDRMDENKTVELSDGRVLLNSRDNANRGYRKVAVSTDGGATYGPVSQDTELPDPANNGAIARMFPNAAQGSADAKKLIFTNANSKTGRENVSARVSCDDGETWPGVRTIRSGFSAYSTVTRLADGKFGVLYEGNYTDNMPFATFDDAWLNYVCAPLAVPAVNIAPSATQEVPVTVTNQEATTLSGATATVYTPSGWSATTVPVPDVAPGASVTVTVALTAPADASGPRSLNAAFTTADGRVSQFTFTATTPVAPQVGLTITGSAPARDVAANPYQAGDVLGYTLNVKSTANVAANSVPLTGTFDSGFLPPAAPNCRYNNLAAGASYNCTTAKHTITAADMERGYFVPEATFSITSTTTPSLTKTVQFTGAAVALRDGLISADISGARTDVGRDLATRPYAAGELVPYAFTVKNTSPFVEQVVPTAGNFSPFLPAGAGNCRYLSLPAGQSYECATPRHAVTAEEVEQGFFVPDTTWEVSAAGQSTRTYRINGGEVDLLVRDAALSATVVAEWKDADGDRFASAGDPVTFTYTVGNAGNVALTGLEAPDAGISLPFLAPGDTATATREHVLTAADVAGGSLAASAFEATARNGSKEVTATAEGQPLELKVQPAQPSKEPELTVQDLEDQTPPFDLGTAFKYRTGQKVSLAGLEYGQWYYVYLNKTGYRLGWMFPTTGDTVEFILPPEVRNGRDDVVVLDKDGRRVSFDRLQVTPKGEKI
# Key:
# Experiment in all cases: glycan array binding signal (z-score within array); higher = stronger binding
# Conditions in all cases: glycan notation: IUPAC condensed, linker removed
# [1] = target: Gal(a1-3)Gal(b1-4)GlcNAc(b1-2)Man
# Method in brief: (§1)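 Glycan array data came from 3228 arrays in the Consortium for Functional Glycomics database, and only arrays with an available protein sequence were kept. Glycan names were put into IUPAC-condensed notation, and columns mapping to the same glycan were averaged. The binding signal is a within-array Z-score, averaged across arrays of one protein sequence run at different concentrations or buffers and across linkers. A negative Z-score can be read as non-binding.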
# [2] = target: Gal(a1-3)Gal(b1-4)GlcNAc(b1-2)Man(a1-3)[Gal(a1-3)Gal(b1-4)GlcNAc(b1-2)Man(a1-6)]Man(b1-4)GlcNAc(b1-4)GlcNAc
# Method in brief: as §1
# [3] = target: Gal(a1-3)Gal(b1-4)GlcNAc(b1-3)GalNAc
# Method in brief: as §1
# [4] = target: Gal(a1-3)Gal(b1-4)GlcNAc(b1-6)GalNAc
# Method in brief: as §1
# [5] = target: Gal(a1-3)Gal(b1-4)[Fuc(a1-3)]GlcNAc
# Method in brief: as §1
# [6] = target: Gal(a1-3)Gal(b1-4)[Fuc(a1-3)]GlcNAc(b1-2)Man(a1-3)[Gal(a1-3)Gal(b1-4)[Fuc(a1-3)]GlcNAc(b1-2)Man(a1-6)]Man(b1-4)GlcNAc(b1-4)GlcNAc
# Method in brief: as §1
# Gal(a1-3)GalNAc = target: Gal(a1-3)GalNAc
# Method in brief: as §1
# [7] = target: Gal(a1-3)[Gal(a1-4)]Gal(b1-4)GlcNAc
# Method in brief: as §1
# [8] = target: Gal(a1-4)Gal(b1-3)GlcNAc(b1-2)Man(a1-3)[Gal(a1-4)Gal(b1-3)GlcNAc(b1-2)Man(a1-6)]Man(b1-4)GlcNAc(b1-4)GlcNAc
# Method in brief: as §1
# Gal(a1-4)Gal(b1-4)Glc = target: Gal(a1-4)Gal(b1-4)Glc
# Method in brief: as §1
# Gal(a1-4)Gal(b1-4)GlcNAc = target: Gal(a1-4)Gal(b1-4)GlcNAc
# Method in brief: as §1
# [9] = target: Gal(a1-4)Gal(b1-4)GlcNAc(b1-2)Man(a1-3)[Gal(a1-4)Gal(b1-4)GlcNAc(b1-2)Man(a1-6)]Man(b1-4)GlcNAc(b1-4)GlcNAc
# Method in brief: as §1
# [10] = target: Gal(a1-4)Gal(b1-4)GlcNAc(b1-3)Gal(b1-4)Glc
# Method in brief: as §1
# Gal(a1-4)GlcNAc = target: Gal(a1-4)GlcNAc
# Method in brief: as §1
# Gal(a1-6)Glc = target: Gal(a1-6)Glc
# Method in brief: as §1
# Gal(b1-2)Gal = target: Gal(b1-2)Gal
# Method in brief: as §1
# Gal(b1-3)Gal = target: Gal(b1-3)Gal
# Method in brief: as §1
# Gal(b1-3)Gal(b1-4)GlcNAc = target: Gal(b1-3)Gal(b1-4)GlcNAc
# Method in brief: as §1
# Gal(b1-3)GalNAc = target: Gal(b1-3)GalNAc
# Method in brief: as §1
# [11] = target: Gal(b1-3)GalNAc(a1-3)[Fuc(a1-2)]Gal(b1-4)Glc
# Method in brief: as §1
# [12] = target: Gal(b1-3)GalNAc(a1-3)[Fuc(a1-2)]Gal(b1-4)GlcNAc
# Method in brief: as §1
# Gal(b1-3)GalNAc(b1-3)Gal = target: Gal(b1-3)GalNAc(b1-3)Gal
# Method in brief: as §1
# [13] = target: Gal(b1-3)GalNAc(b1-3)Gal(a1-4)Gal(b1-4)Glc
# Method in brief: as §1
# [14] = target: Gal(b1-3)GalNAc(b1-4)Gal(b1-4)Glc
# Method in brief: as §1
# [15] = target: Gal(b1-3)GalNAc(b1-4)[Neu5Ac(a2-3)]Gal(b1-4)Glc
# Method in brief: as §1
# Gal(b1-3)GlcNAc = target: Gal(b1-3)GlcNAc
# Method in brief: as §1
# [16] = target: Gal(b1-3)GlcNAc(a1-3)Gal(b1-4)GlcNAc
# Method in brief: as §1
# [17] = target: Gal(b1-3)GlcNAc(a1-6)Gal(b1-4)GlcNAc
# Method in brief: as §1
# Gal(b1-3)GlcNAc(b1-2)Man = target: Gal(b1-3)GlcNAc(b1-2)Man
# Method in brief: as §1
# [18] = target: Gal(b1-3)GlcNAc(b1-2)Man(a1-3)[Gal(b1-3)GlcNAc(b1-2)Man(a1-6)]Man(b1-4)GlcNAc(b1-4)GlcNAc
# Method in brief: as §1
binder,measurement,setting,value
B1,glycan array binding signal (z-score),[1],-0.819
same,glycan array binding signal (z-score),[2],0.472
same,glycan array binding signal (z-score),[3],-0.615
same,glycan array binding signal (z-score),[4],-0.682
same,glycan array binding signal (z-score),[5],-0.607
same,glycan array binding signal (z-score),[6],-0.788
same,glycan array binding signal (z-score),Gal(a1-3)GalNAc,-0.822
same,glycan array binding signal (z-score),[7],-0.227
same,glycan array binding signal (z-score),[8],-0.146
same,glycan array binding signal (z-score),Gal(a1-4)Gal(b1-4)Glc,-0.614
same,glycan array binding signal (z-score),Gal(a1-4)Gal(b1-4)GlcNAc,-0.33
same,glycan array binding signal (z-score),[9],0.431
same,glycan array binding signal (z-score),[10],-0.51
same,glycan array binding signal (z-score),Gal(a1-4)GlcNAc,-0.583
same,glycan array binding signal (z-score),Gal(a1-6)Glc,-0.881
same,glycan array binding signal (z-score),Gal(b1-2)Gal,-0.598
same,glycan array binding signal (z-score),Gal(b1-3)Gal,-0.451
same,glycan array binding signal (z-score),Gal(b1-3)Gal(b1-4)GlcNAc,-0.643
same,glycan array binding signal (z-score),Gal(b1-3)GalNAc,-0.587
same,glycan array binding signal (z-score),[11],-0.388
same,glycan array binding signal (z-score),[12],-0.72
same,glycan array binding signal (z-score),Gal(b1-3)GalNAc(b1-3)Gal,-0.833
same,glycan array binding signal (z-score),[13],-0.431
same,glycan array binding signal (z-score),[14],-0.529
same,glycan array binding signal (z-score),[15],1.65
same,glycan array binding signal (z-score),Gal(b1-3)GlcNAc,-0.604
same,glycan array binding signal (z-score),[16],-0.431
same,glycan array binding signal (z-score),[17],-0.544
same,glycan array binding signal (z-score),Gal(b1-3)GlcNAc(b1-2)Man,-0.135
same,glycan array binding signal (z-score),[18],0.441
